The list shows a part of the results.

The labels stand for the following.
T1: UNK ZnF1-6 (called full-length) (human, UniProt Q9C0B0 30-357)
T1 sequence: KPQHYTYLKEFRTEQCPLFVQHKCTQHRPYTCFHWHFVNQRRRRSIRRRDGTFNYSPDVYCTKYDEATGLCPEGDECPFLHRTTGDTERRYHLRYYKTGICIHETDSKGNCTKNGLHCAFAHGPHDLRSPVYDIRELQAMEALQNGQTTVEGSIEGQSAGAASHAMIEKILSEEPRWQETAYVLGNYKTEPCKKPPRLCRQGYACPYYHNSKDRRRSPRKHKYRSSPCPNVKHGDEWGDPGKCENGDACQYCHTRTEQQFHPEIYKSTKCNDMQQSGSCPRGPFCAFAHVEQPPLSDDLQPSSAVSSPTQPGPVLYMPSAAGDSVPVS

B1: chr12:39370042:39370220:-|CDS|ENSG00000139116|unk|total|mutant (ssRNA)
RNA: GGGAGUUCUACAGUCCGACGAUCUACUUUUGACUAUGUAUUUGACAUUGACUCCCAGCAAGAGCAGAUCUACAUUCAAUGUACCGAAAAACUAAUUGAAGGUUGCUUUGAAGGAUACAAUGCUACAGUUUUUGCUUAUGGACACAACAGAGGAUUGAGCAUCA
B2: chr16:14644374:14644495:+|CDS|ENSG00000103429|unk|FALSE|unique (ssRNA)
RNA: GGGAGUUCUACAGUCCGACGAUCAACACAAUGGACCUUGAGAGAGAUGAACCUCUCAAAAGCACCGGCCCUCAGAUUUCUGUUAGUGAAUUUUCUUGCCACUGCUGCUACGACAUCCUGGUUAACCCCACCACCUUGAACUGUCAACAGAGGAUUGAGCAUCA
B3: ENSG00000198589:be:win_2401|CDS|ENSG00000198589|bound_else_gene|NA|bound_elsewhere_windowed (ssRNA)
RNA: GGGAGUUCUACAGUCCGACGAUCCAUAAACAGCAUCCAGAUCCUGAUUCUUCAGUGAAGAUACAAAACCCUCAGAUACUAAAAGUAAUUGCGACCCUACUUCGAAAUUCUCCCCAGUGCCCAGAGAGCAUGGAGGUUCGCAGACAACAGAGGAUUGAGCAUCA
B4: chr1:32195301:32195402:+|3pUTR|ENSG00000084652|msi1|total|mutant (ssRNA)
RNA: GGGAGUUCUACAGUCCGACGAUCUGACCUGGCUGGCAUCUGGCACUUGCAAUUUUGGAUUUUGUGGGUCAGUUUUACGUACACCGGGCAUUUUGCAAGGCCUUGCAAAUGCAUUUAUACCUGUAAGUGUACAGUGGGCUUGCACAACAGAGGAUUGAGCAUCA
B5: chr8:81702113:81702224:-|3pUTR|ENSG00000104231|unk|FALSE|unique (ssRNA)
RNA: GGGAGUUCUACAGUCCGACGAUCGUAUAGCCUUGCUGUCUGUCUACAUCAUGAUGUAUAAAUUGAUAUAUCUACAUGAAUUAUAGAAACUUAGAAGUGAUCUUUAUUCAGUCUUAUAAUUUUUACAUGAAGAAUCUUAGGCCUCAACAGAGGAUUGAGCAUCA
B6: chr5:136977529:136977630:-|3pUTR|ENSG00000152377|msi1|FALSE|unique (ssRNA)
RNA: GGGAGUUCUACAGUCCGACGAUCACAAGCCAUCUCUUUCAUUUCUGCUUGAAGCCCCUUGGCUGCAGCAAUCCUGUCUGCCAUAGGUUUCUUCCUUCCUUACCUACUCAAGGGCUUUUUCUAAGGCAUGCACACAUAUCUCCUCAACAGAGGAUUGAGCAUCA
B7: chr18:47840682:47840783:-|3pUTR|ENSG00000175387|unk|total|mutant (ssRNA)
RNA: GGGAGUUCUACAGUCCGACGAUCAUACCGUUUUUCCAAAGGUAUUUUACAAUAUUUCAACAGCAGACCUUCUGCUCUUCGAGCCGUUUGAUUUGGUUCCGUAACCAGAUUGCAUUAUGAAAUGGGCCUUUUGUAAAUGUAAUUCAACAGAGGAUUGAGCAUCA
B8: chr9:123379744:123379845:-|3pUTR|ENSG00000119522|msi1|FALSE|unique (ssRNA)
RNA: GGGAGUUCUACAGUCCGACGAUCGUGUUUCAGCAUAGAUUCCAGUUUCGCACCCUGGGCAGACCCCCAGGCCCCAUCCGGGAUAGGGCAGAGGAGGUGCUGGCGGCCCCAGGGAAGGAGGGUGUGUACCCCAAGGCCCCCUGGCAACAGAGGAUUGAGCAUCA
B9: chr8:41263332:41263433:-|3pUTR|ENSG00000104332|msi1|FALSE|unique (ssRNA)
RNA: GGGAGUUCUACAGUCCGACGAUCCAGCAUGCCCGCCUAGUUACCUACCGGAGAGUUAUCCUGAUAAAUUAACCUCUCACAGUUAGUGAUCCUGUCCUUUUAACACCUUUUUUGUGGGGUUCUCUCUGACCUUUCAUCGUAAAGCAACAGAGGAUUGAGCAUCA
B10: chr20:3582170:3582271:+|CDS|ENSG00000088812|msi1|total|mutant (ssRNA)
RNA: GGGAGUUCUACAGUCCGACGAUCGGCCUUCGGAAGAUCAAUGUGUCCUACUGGUGCUGGGAAGAUAUGUCCCCAUUUACAAACCGUUUACUACAGUGGAUGCCGUCUGAGCCCAGUGAUGCUGGAUUCUGUGGAAUUUUAUCACAACAGAGGAUUGAGCAUCA
B11: chr3:94057921:94060947:-|three_prime_utr|ENSG00000178700|control|control|control (ssRNA)
RNA: GGGAGUUCUACAGUCCGACGAUCAGGUGUUUUCUGGUUUAAGUUGUUCCCCCUCCCUCUGAGAAAAGUAUGCAUUUUUACAUUAGAAAAGGGACUUUUGUUGACUUCAGAUCUAUGGAUAAUUAUUUCUAAGCAACGUGUUUUCAACAGAGGAUUGAGCAUCA
B12: ENSG00000198589:be:win_8801|3pUTR|ENSG00000198589|bound_else_gene|NA|bound_elsewhere_windowed (ssRNA)
RNA: GGGAGUUCUACAGUCCGACGAUCAAGUCUAUUUUCACCAAUUAUGGAAACAUACAGUGGAGCAAGUAAACCACUUAUUCCAGCUAUAAUAUUAUGAAGAACAUUUCCCAUGCAUCUACAAGCUUGAGAAAUAGGAUUUUCACACAACAGAGGAUUGAGCAUCA
B13: chr12:65247554:65247656:+|3pUTR|ENSG00000174106|unk|total|mutant (ssRNA)
RNA: GGGAGUUCUACAGUCCGACGAUCCAGUAUUUAAUUUGUUUCAGUAAACUUACUUUAUUACUGUUUAUGAUUUCAGAUAAAAACCGUUGCUGAGUAAAUUUUACUUGUAAUCUACAAUUGGCUUUUUAAAAAUAACCUGUUGAUCAACAGAGGAUUGAGCAUCA
B14: chr2:224378697:224380208:-|three_prime_utr|ENSG00000124019|control|control|control (ssRNA)
RNA: GGGAGUUCUACAGUCCGACGAUCUCCUUCAUCUGCAAGUUCAGGGUGAAGAAAAAGAAGAAGAUGAAGAAGAAUUCUUUAUAUAGCAUAAAAUAAAUGUGGUUUUCUAAAACACAAGAUCAGAUAAAAUGUUCUAGAAAUGGACAACAGAGGAUUGAGCAUCA
B15: chr1:51287257:51288280:-|three_prime_utr|ENSG00000085831|control|control|control (ssRNA)
RNA: GGGAGUUCUACAGUCCGACGAUCCAUGGAGUCAAGGACACACUUUCGAAUCCAGGCAGCCACACUCCAAGCCAAGUCUUCCCUAGAGAACAGCAGCAGAUCCAUGGUCUCAUCAGUGUCCUUGUAGCUUUGUGCAGCAGUUCCCAACAGAGGAUUGAGCAUCA
B16: chr7:2664602:2664704:+|3pUTR|ENSG00000136295|msi1_unk|total|mutant (ssRNA)
RNA: GGGAGUUCUACAGUCCGACGAUCUCCUCCAGCCUCUGCCGGGCCAUGGCUGUAUGUACUGUCGCUGUGUUUUUUUGUUUUUUCCGAACUGGGUUUGGGGGCUGAUUUUUAUUUCUUUGGGGGCUUUUUUUCUUGGCAAAUACUCAACAGAGGAUUGAGCAUCA
B17: chr5:95898239:95898810:-|CDS|ENSG00000118985|control|control|control (ssRNA)
RNA: GGGAGUUCUACAGUCCGACGAUCGUUGACAGUUUUAGUCAAAACGAUAGUAUCUAUGAGGACCAGCAAGACAAAUAUACCUCUAGGACUUCUCUGGAAACCUUACCCCCUGGUUCCGUUCUACUAAAGUGUCCAAAGCCUAUGCAACAGAGGAUUGAGCAUCA
B18: chr1:31179744:31181702:-|three_prime_utr|ENSG00000084628|control|control|control (ssRNA)
RNA: GGGAGUUCUACAGUCCGACGAUCUCAGACCCAUCCCAUCCCACCACACUCACUCACCAGCUCUGGGGAAAGCUACUGUGAACUAGGAGCAGGAUUCCUGGGUUCUAAUCGCAGGUCCAUCACUGACUGUGACGUCUAGCAAAGCAACAGAGGAUUGAGCAUCA
B19: chr10:117284474:117284575:-|CDS|ENSG00000165650|msi1|total|mutant (ssRNA)
RNA: GGGAGUUCUACAGUCCGACGAUCAUUGCAUUGUGGUGCAGGGAUCCUUUCAAGUUGGGAGGUCUCAUCUGUUUGGGGCAUGUCCGUUUAAAACUUGAAGAUGUGGCUUCCGGAUGCCCCGCUACAUCAAACACGGAAUACCUUCAACAGAGGAUUGAGCAUCA
B20: chr19:35125195:35125507:-|CDS|ENSG00000153902|control|control|control (ssRNA)
RNA: GGGAGUUCUACAGUCCGACGAUCCUCGCGCGGUGCCCACGUCUUCCAGCCACUGCUCAUCGCCAGGGACCAGCUGGCCAUCCUAGGCAGCGACUUCGCCUUCAGCCAGGUCCUCCGCCUUGAGCCUGACAAGGGGCUCCUGGACAACAGAGGAUUGAGCAUCA
B21: chr1:22530103:22530204:+|3pUTR|ENSG00000184677|msi1|FALSE|unique (ssRNA)
RNA: GGGAGUUCUACAGUCCGACGAUCCAUGUAUAGAGUGGGCAGGCGGUUCCAGGGAGACAAGCAGCAUGUUAUUAAAUUGGGCCUAGGCAGUUGGACGAUAAUGGAGAAAAAGCAGGGAUGCUAUAAUGAGUCCUCCCCAAGGGUCAACAGAGGAUUGAGCAUCA
B22: chr15:55376998:55377117:-|CDS|ENSG00000260916|unk|total|mutant (ssRNA)
RNA: GGGAGUUCUACAGUCCGACGAUCUAUCUAUAUUGGAACUGCCAGUGAUGAUUCUGAUAUUGUUACCCUUGAGCCACCUAAGUCCGAAGAAAUUGGAAAUCAAGAAGUUGUCAUUGUUGAAGAAGCACAGAGUUCAGAAGACUUCAACAGAGGAUUGAGCAUCA

This assay has as its target T1, UNK ZnF1-6 (called full-length). The assay is described as follows: nsRBNS (natural sequence RNA bind-n-seq); RBNS binding buffer (assumed for nsRBNS): 25 mM Tris pH 7.5, 150 mM KCl, 3 mM MgCl2, 0.01% Triton X-100, 500 ug/ml BSA, 20 U/ml SUPERase-In, 4 C; UNK is unkempt and MSI1 is Musashi-1; names of the RNAs are library labels; protein concentration not given here; high values mean tight binding.
Molecule B1 yielded a binding signal of 0.492 enrichment R.
Molecule B2 gave a binding signal of 0.765 enrichment R.
With B3 the figure was 0.432 enrichment R.
With B4 the figure was 0.625 enrichment R; with B5, 1.15 enrichment R; with B6, 0.574 enrichment R.
For B7, the binding signal was determined as 0.426 enrichment R.
With B8 the figure was 0.57 enrichment R; with B9, 1.07 enrichment R.
Next, B10: 0.562 enrichment R; B11: 0.859 enrichment R; B12: 0.449 enrichment R.
B13 came in with a binding signal of 0.307 enrichment R.
With B14 the figure was 1.68 enrichment R; with B15, 0.824 enrichment R; with B16, 1.44 enrichment R.
Next, B17: 0.589 enrichment R; B18: 0.761 enrichment R.
For the molecule B19, the binding signal turned out to be 0.408 enrichment R.
Next, B20: 0.747 enrichment R; B21: 1.43 enrichment R; B22: 0.258 enrichment R.

(Values after article PMC12136788.)
